Some of the results follow.
System: S. aureus RN4220
Assay: growth inhibition call (relative growth <= 0.2)
Details: 50 µM

Growth inhibition call, inactive:
CC[C@H]1OC[C@@H]2CN(C(=O)CN(C)C)CC[C@H]21
C[C@H](CO)N1C[C@H](C)[C@@H](CN(C)Cc2ccc(-c3ccccc3)cc2)Oc2c(NC(=O)C3CCCCC3)cccc2C1=O
C[C@@H]1CN([C@@H](C)CO)C(=O)c2c(c3ccccc3n2C)-c2ccccc2CO[C@@H]1CN(C)C(=O)c1ccc(F)cc1
C[C@H]1CN([C@@H](C)CO)S(=O)(=O)c2ccc(Br)cc2O[C@H]1CN(C)Cc1ccc(F)cc1
O=C(NO)c1ccc(-c2cn(CC(=O)N3CCOCC3)nn2)cc1
C[C@@H]1CCCCO[C@@H](CN(C)S(=O)(=O)c2ccc(Cl)cc2)[C@@H](C)CN([C@H](C)CO)C(=O)c2cc(NC(=O)C3CCCCC3)ccc2O1
C[C@H]1CN([C@@H](C)CO)C(=O)Cc2cc(NC(=O)Nc3ccc4c(c3)OCO4)ccc2O[C@@H]1CN(C)S(=O)(=O)c1cn(C)cn1
C[C@@H]1CCCCO[C@H](CN(C)C(=O)Nc2ccc3c(c2)OCO3)[C@@H](C)CN([C@H](C)CO)C(=O)c2cc(NC(=O)Nc3ccc(F)cc3)ccc2O1
C[C@H]1CN([C@@H](C)CO)C(=O)c2cc(NC(=O)c3ccncc3)ccc2O[C@H]1CN(C)S(=O)(=O)c1cccs1
O=C(C[C@@H]1CC[C@@H]2[C@H](COC[C@H](O)CN2S(=O)(=O)c2ccc(F)cc2)O1)NCc1ccncn1
Cc1cc(C(=O)Nc2cccc3c2O[C@H](CN(C)S(=O)(=O)c2ccccc2)[C@@H](C)CN([C@@H](C)CO)C3=O)n(C)n1
COc1ccc(S(=O)(=O)N(C)C[C@@H]2Oc3c(NS(=O)(=O)c4ccccc4)cccc3C(=O)N([C@H](C)CO)C[C@@H]2C)cc1
O=C(/C=C/c1ccc(O)cc1)[C@H]1C(=O)[C@H]([C@@H]2O[C@H](CO)[C@@H](O)[C@H](O)[C@H]2O)C(=O)[C@@](O)([C@@H]2O[C@H](CO)[C@@H](O)[C@H](O)[C@H]2O)C1=O
COc1ccc(CN(C)C[C@H]2Oc3c(NS(C)(=O)=O)cccc3C(=O)N([C@H](C)CO)C[C@@H]2C)cc1
CC(C)(C)OC(=O)N1CC(C(=O)O)C1
C[C@H]1CN([C@@H](C)CO)C(=O)c2cc(NC(=O)Cc3ccccc3)ccc2O[C@H]1CN(C)Cc1ccc(Cl)c(Cl)c1
C[C@@H]1CN([C@@H](C)CO)C(=O)c2cc(NC(=O)c3ccncc3)ccc2O[C@@H]1CN(C)Cc1ccc(Oc2ccccc2)cc1
C[C@@H]1CN([C@@H](C)CO)C(=O)c2cc(NC(=O)Nc3ccc(F)cc3)ccc2O[C@@H](C)CCCCO[C@@H]1CN(C)Cc1ccc(C(=O)O)cc1
C[C@@H]1CCCCO[C@H](CN(C)CC2CCCCC2)[C@H](C)CN([C@H](C)CO)C(=O)c2cc(NC(=O)C3CCCCC3)ccc2O1
Cc1noc(C)c1NC(=O)N(C)C[C@H]1Oc2ccc(NC(=O)CCN3CCOCC3)cc2C(=O)N([C@@H](C)CO)C[C@@H]1C
C[C@@H]1CN([C@@H](C)CO)C(=O)Cc2cc(NC(=O)Nc3cccc4ccccc34)ccc2O[C@H]1CN(C)Cc1ccc(C(=O)O)cc1
C[C@@H]1CN([C@H](C)CO)C(=O)c2cccc(NC(=O)C3CC3)c2O[C@H]1CN(C)Cc1ccc(-c2ccccc2)cc1
CC(C)CC#Cc1ccc2c(c1)O[C@H](CN(C)C(=O)c1cnccn1)[C@H](C)CN([C@H](C)CO)S2(=O)=O
C[C@H](CO)N1C[C@H](C)[C@H](CN(C)C(=O)c2cnccn2)Oc2cc(C#CCC3CCCC3)ccc2S1(=O)=O
C[C@@H]1CN([C@H](C)CO)C(=O)c2cccc(NS(C)(=O)=O)c2O[C@H]1CN(C)C(=O)Nc1ccc(C(F)(F)F)cc1
Cc1nn(C)cc1NC(=O)C[C@@H]1CC[C@H]2[C@@H](COc3ccc(NC(=O)C4CCOCC4)cc3C(=O)N2C)O1
CN(C)c1cc[n+](C(=O)N2CCOCC2)cc1
C[C@@H]1CN([C@@H](C)CO)C(=O)c2cccc(NC(=O)Nc3ccc(F)cc3)c2O[C@@H]1CN(C)S(C)(=O)=O
C[C@@H]1CN([C@@H](C)CO)C(=O)c2cc(NC(=O)c3ccncc3)ccc2O[C@@H](C)CCCCO[C@H]1CN(C)C(=O)C1CCCCC1
C[C@H]1CN([C@@H](C)CO)C(=O)c2cccc(NC(=O)c3nc4ccccc4s3)c2O[C@@H]1CN(C)Cc1ccc(-c2ccccc2)cc1
COc1ccc(S(=O)(=O)Nc2ccc3c(c2)C(=O)N([C@H](C)CO)C[C@H](C)[C@@H](CN(C)Cc2ccncc2)O3)cc1
C[C@@H]1CN([C@@H](C)CO)C(=O)Cc2cc(NC(=O)CCN3CCOCC3)ccc2O[C@@H]1CN(C)S(=O)(=O)c1ccc(Cl)cc1
Cc1cncc2cccc(S(=O)(=O)NCCN(C/C=C/c3ccc(Br)cc3)C/C=C/c3ccc(Br)cc3)c12
C[C@@H]1CN([C@H](C)CO)C(=O)c2cc(NC(=O)C3CCCCC3)ccc2O[C@@H](C)CCCCO[C@H]1CN(C)C(=O)Cc1ccccc1
Oc1ccccc1CNc1ccc(C2CCCCC2)cc1
O=C(C[C@@H]1CC[C@H]2[C@@H](COC[C@H](O)CN2C(=O)Nc2ccc(Cl)cc2)O1)NC1Cc2ccccc2C1
Cc1noc(C)c1S(=O)(=O)N(C)C[C@H]1OCCCC[C@H](C)Oc2ccc(N(C)C)cc2C(=O)N([C@@H](C)CO)C[C@@H]1C
COc1cccc(C#Cc2ccc3c(c2)O[C@H](CN(C)S(=O)(=O)c2ccccc2F)[C@@H](C)CN([C@H](C)CO)S3(=O)=O)c1
COc1ccc(S(=O)(=O)N(C)C[C@H]2Oc3cc(C4=CCCC4)ccc3S(=O)(=O)N([C@@H](C)CO)C[C@H]2C)cc1
COc1cccc(S(=O)(=O)N(C)C[C@@H]2Oc3cc(C#CCC(C)C)ccc3S(=O)(=O)N([C@H](C)CO)C[C@H]2C)c1

— the antibiotic and cytotoxicity screens of Wong et al. (2023)
